Laboratory results published in article PMC5852078.
No constants are given. Whether binding was seen depends on the method and setting. In cells and extracts the contact can be indirect. Some results given as binding are weak or reduced against the parent protein; the word gives no strength. Values belong to the molecule of their own block, whether it stands above or below them.

Amino acid sequences for entries named in this document (tags omitted). Residues count along the entry.
UniProt P10747, residues 19-220: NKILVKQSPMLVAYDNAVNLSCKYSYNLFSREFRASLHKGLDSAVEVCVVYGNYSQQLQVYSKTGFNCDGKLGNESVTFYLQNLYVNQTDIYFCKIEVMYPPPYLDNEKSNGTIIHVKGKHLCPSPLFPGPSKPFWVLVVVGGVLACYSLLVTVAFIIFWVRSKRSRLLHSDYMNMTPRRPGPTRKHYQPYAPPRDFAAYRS
UniProt P31041, residues 20-218: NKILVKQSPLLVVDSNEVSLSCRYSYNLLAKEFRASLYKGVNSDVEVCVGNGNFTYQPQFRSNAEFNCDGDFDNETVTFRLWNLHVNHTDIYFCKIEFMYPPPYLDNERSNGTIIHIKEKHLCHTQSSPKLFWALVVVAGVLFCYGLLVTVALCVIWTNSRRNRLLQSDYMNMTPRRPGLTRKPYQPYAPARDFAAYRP
UniProt O43639: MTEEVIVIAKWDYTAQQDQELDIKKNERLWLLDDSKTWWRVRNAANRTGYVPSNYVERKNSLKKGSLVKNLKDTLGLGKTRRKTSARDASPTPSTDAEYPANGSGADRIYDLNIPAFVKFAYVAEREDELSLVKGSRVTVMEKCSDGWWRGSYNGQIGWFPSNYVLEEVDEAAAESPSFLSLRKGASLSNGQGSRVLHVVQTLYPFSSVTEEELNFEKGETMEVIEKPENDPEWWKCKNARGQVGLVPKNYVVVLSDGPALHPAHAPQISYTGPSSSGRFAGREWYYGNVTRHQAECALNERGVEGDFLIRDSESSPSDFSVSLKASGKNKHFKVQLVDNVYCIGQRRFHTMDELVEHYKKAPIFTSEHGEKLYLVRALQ

Columns and labels:
[1] = molecular target: human CD28 WT, transfected (human) (UniProt P10747); assay: co-IP; exogenously expressed Vav1 or Nck, each expressed alone, with hCD28 after stimulation with B7.1/CD80-expressing APC (Supplementary Fig. 8a, b)
[2] = molecular target: human CD28 WT, transfected (human) (UniProt P10747); assay: co-IP; Nck and Vav1 co-expressed, with hCD28 (Supplementary Fig. 8c)
[3] = molecular target: mouse CD28 (mouse (endogenous in splenic CD4+ T cells)) (UniProt P31041); assay: co-IP; pooled mouse splenic CD4+ T cells stimulated 5 min with B7-negative or B7.1-expressing RAW cells (p85 also after agonistic anti-CD28 Abs); 1% Nonidet P-40 lysis buffer; anti-mouse CD28 (37.51) IP via rabbit anti-hamster on Protein-A Sepharose; western blot
[4] = molecular target: human CD28 (human (endogenous in primary CD4+ T cells)) (UniProt P10747); assay: co-IP; human primary CD4+ T cells stimulated 5 min with B7-negative or Dap3/B7 cells (p85 also after agonistic anti-CD28 Abs); 1% Nonidet P-40 lysis buffer, 150 mM NaCl, 20 mM Tris-HCl pH 7.5; anti-CD28 (CD28.2) IP on Protein-G Sepharose; western blot
[5] = molecular target: human CD28 WT, transfected (human) (UniProt P10747); assay: co-IP; Nck and Vav1 co-expressed, with hCD28 (Supplementary Fig. 8c); remark: listed apart in the source

binding [1]: binds
binding [2]: binds
Molecule: exogenously expressed Nck (from UniProt O43639 1-380)

binding [1]: binds
B3: exogenously expressed Vav1 (protein, UniProt P15498 1-845)
chain: MELWRQCTHWLIQCRVLPPSHRVTWDGAQVCELAQALRDGVLLCQLLNNLLPHAINLREVNLRPQMSQFLCLKNIRTFLSTCCEKFGLKRSELFEAFDLFDVQDFGKVIYTLSALSWTPIAQNRGIMPFPTEEESVGDEDIYSGLSDQIDDTVEEDEDLYDCVENEEAEGDEIYEDLMRSEPVSMPPKMTEYDKRCCCLREIQQTEEKYTDTLGSIQQHFLKPLQRFLKPQDIEIIFINIEDLLRVHTHFLKEMKEALGTPGAANLYQVFIKYKERFLVYGRYCSQVESASKHLDRVAAAREDVQMKLEECSQRANNGRFTLRDLLMVPMQRVLKYHLLLQELVKHTQEAMEKENLRLALDAMRDLAQCVNEVKRDNETLRQITNFQLSIENLDQSLAHYGRPKIDGELKITSVERRSKMDRYAFLLDKALLICKRRGDSYDLKDFVNLHSFQVRDDSSGDRDNKKWSHMFLLIEDQGAQGYELFFKTRELKKKWMEQFEMAISNIYPENATANGHDFQMFSFEETTSCKACQMLLRGTFYQGYRCHRCRASAHKECLGRVPPCGRHGQDFPGTMKKDKLHRRAQDKKRNELGLPKMEVFQEYYGLPPPPGAIGPFLRLNPGDIVELTKAEAEQNWWEGRNTSTNEIGWFPCNRVKPYVHGPPQDLSVHLWYAGPMERAGAESILANRSDGTFLVRQRVKDAAEFAISIKYNVEVKHIKIMTAEGLYRITEKKAFRGLTELVEFYQQNSLKDCFKSLDTTLQFPFKEPEKRTISRPAVGSTKYFGTAKARYDFCARDRSELSLKEGDIIKILNKKGQQGWWRGEIYGRVGWFPANYVEEDYSEYC
binding [5]: no binding (condition: with Nck co-expressed)

Continued, molecule first:

B1: Vav1 (mouse, endogenous) (protein, UniProt P27870 1-845)
chain: MELWRQCTHWLIQCRVLPPSHRVTWEGAQVCELAQALRDGVLLCQLLNNLLPQAINLREVNLRPQMSQFLCLKNIRTFLSTCCEKFGLKRSELFEAFDLFDVQDFGKVIYTLSALSWTPIAQNKGIMPFPTEDSALNDEDIYSGLSDQIDDTAEEDEDLYDCVENEEAEGDEIYEDLMRLESVPTPPKMTEYDKRCCCLREIQQTEEKYTDTLGSIQQHFMKPLQRFLKPQDMETIFVNIEELFSVHTHFLKELKDALAGPGATTLYQVFIKYKERFLVYGRYCSQVESASKHLDQVATAREDVQMKLEECSQRANNGRFTLRDLLMVPMQRVLKYHLLLQELVKHTQDATEKENLRLALDAMRDLAQCVNEVKRDNETLRQITNFQLSIENLDQSLANYGRPKIDGELKITSVERRSKTDRYAFLLDKALLICKRRGDSYDLKASVNLHSFQVRDDSSGERDNKKWSHMFLLIEDQGAQGYELFFKTRELKKKWMEQFEMAISNIYPENATANGHDFQMFSFEETTSCKACQMLLRGTFYQGYRCYRCRAPAHKECLGRVPPCGRHGQDFAGTMKKDKLHRRAQDKKRNELGLPKMEVFQEYYGIPPPPGAFGPFLRLNPGDIVELTKAEAEHNWWEGRNTATNEVGWFPCNRVHPYVHGPPQDLSVHLWYAGPMERAGAEGILTNRSDGTYLVRQRVKDTAEFAISIKYNVEVKHIKIMTSEGLYRITEKKAFRGLLELVEFYQQNSLKDCFKSLDTTLQFPYKEPERRAISKPPAGSTKYFGTAKARYDFCARDRSELSLKEGDIIKILNKKGQQGWWRGEIYGRIGWFPSNYVEEDYSEYC
binding [3]: binds

B2: Vav1 (human, endogenous) (protein, UniProt P15498 1-845)
chain: MELWRQCTHWLIQCRVLPPSHRVTWDGAQVCELAQALRDGVLLCQLLNNLLPHAINLREVNLRPQMSQFLCLKNIRTFLSTCCEKFGLKRSELFEAFDLFDVQDFGKVIYTLSALSWTPIAQNRGIMPFPTEEESVGDEDIYSGLSDQIDDTVEEDEDLYDCVENEEAEGDEIYEDLMRSEPVSMPPKMTEYDKRCCCLREIQQTEEKYTDTLGSIQQHFLKPLQRFLKPQDIEIIFINIEDLLRVHTHFLKEMKEALGTPGAANLYQVFIKYKERFLVYGRYCSQVESASKHLDRVAAAREDVQMKLEECSQRANNGRFTLRDLLMVPMQRVLKYHLLLQELVKHTQEAMEKENLRLALDAMRDLAQCVNEVKRDNETLRQITNFQLSIENLDQSLAHYGRPKIDGELKITSVERRSKMDRYAFLLDKALLICKRRGDSYDLKDFVNLHSFQVRDDSSGDRDNKKWSHMFLLIEDQGAQGYELFFKTRELKKKWMEQFEMAISNIYPENATANGHDFQMFSFEETTSCKACQMLLRGTFYQGYRCHRCRASAHKECLGRVPPCGRHGQDFPGTMKKDKLHRRAQDKKRNELGLPKMEVFQEYYGLPPPPGAIGPFLRLNPGDIVELTKAEAEQNWWEGRNTSTNEIGWFPCNRVKPYVHGPPQDLSVHLWYAGPMERAGAESILANRSDGTFLVRQRVKDAAEFAISIKYNVEVKHIKIMTAEGLYRITEKKAFRGLTELVEFYQQNSLKDCFKSLDTTLQFPFKEPEKRTISRPAVGSTKYFGTAKARYDFCARDRSELSLKEGDIIKILNKKGQQGWWRGEIYGRVGWFPANYVEEDYSEYC
binding [4]: binds
